{"source": "the supplement of paper PMC10037445", "key": {"RAW-Dual [1]": {"tested_on": "RAW-Dual", "test": "NF-kB SEAP reporter activity, fold change vs agonist alone; higher = enhanced NF-kB activity", "details": "library stock concentration (final ~1000-fold dilution): 10 mM, cytotoxicity flag (confluency mask): not cytotoxic", "summary_of_the_method": "(§1)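 Supernatant from RAW-Dual macrophages was read after 20 hours for IRF by QuantiLuc luminescence and for NF-κB by QuantiBlue absorbance at 620 nm. The cells (50,000 cells/well in DMEM, 384-well plates, 37 °C, 5% CO2) had received 50 nL of library stock by pin tool and, 1 h later, a PRR agonist. Reporter activity is expressed relative to agonist-alone wells as fold change, and wells were flagged cytotoxic if IncuCyte confluency was under 70% of agonist controls in both mask sets.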"}, "RAW-Dual [2]": {"tested_on": "RAW-Dual", "test": "NF-kB SEAP reporter activity, fold change vs agonist alone; cytotoxicity flag (confluency mask): not cytotoxic; higher = enhanced NF-kB activity", "summary_of_the_method": "as §1"}, "[3]": {"details": "agonist: ODN 1826 (TLR9) 0.5 ug/mL"}, "[4]": {"details": "agonist: Pam2CSK4 (TLR2/6) 0.1 ug/mL"}, "[5]": {"details": "agonist: Pam3CSK4 (TLR2/1) 0.1 ug/mL"}}, "note": "In all, about 2,900 compounds were measured (“NF-kB SEAP reporter activity, fold change vs agonist alone”: median about 0.99, highest 2% from about 2.6 on). This is one part of the list."}
{"molecule": "CCCCc1ncc(/C=C(\\Cc2cccs2)C(=O)O)n1Cc1ccc(C(=O)O)cc1.CS(=O)(=O)O", "values": [{"measurement": "NF-kB SEAP reporter activity", "setting": "RAW-Dual [1]; agonist: Imiquimod (TLR7) […]", "value": 0.937}, {"measurement": "NF-kB SEAP reporter activity", "setting": "RAW-Dual [1]; agonist: MPLA (TLR4) […]", "value": 0.953}]}
{"molecule": "CCCCc1ncc(/C=C(\\Cc2cccs2)C(=O)O)n1Cc1ccc(C(=O)O)cc1.CS(=O)(=O)O", "note": "(library stock concentration (final ~1000-fold dilution): 10 mM)", "values": [{"measurement": "NF-kB SEAP reporter activity", "setting": "RAW-Dual [2]; agonist: LPS (TLR4) 0.1 ug/mL", "value": 0.937}, {"measurement": "NF-kB SEAP reporter activity", "setting": "RAW-Dual [2]; [3]", "value": 0.959}, {"measurement": "NF-kB SEAP reporter activity", "setting": "RAW-Dual [2]; [4]", "value": 0.969}, {"measurement": "NF-kB SEAP reporter activity", "setting": "RAW-Dual [2]; [5]", "value": 1.04}]}
{"molecule": "Oc1ccc(-c2c(-c3ccccc3)nn3c(C(F)(F)F)cc(C(F)(F)F)nc23)cc1", "note": "(library stock concentration (final ~1000-fold dilution): 10 mM)", "values": [{"measurement": "NF-kB SEAP reporter activity", "setting": "RAW-Dual [2]; agonist: LPS (TLR4) 0.1 ug/mL", "value": 0.501}, {"measurement": "NF-kB SEAP reporter activity", "setting": "RAW-Dual [2]; [3]", "value": 0.939}, {"measurement": "NF-kB SEAP reporter activity", "setting": "RAW-Dual [2]; [4]", "value": 0.635}, {"measurement": "NF-kB SEAP reporter activity", "setting": "RAW-Dual [2]; [5]", "value": 1.08}]}
{"molecule": "Oc1ccc(-c2c(-c3ccccc3)nn3c(C(F)(F)F)cc(C(F)(F)F)nc23)cc1", "values": [{"measurement": "NF-kB SEAP reporter activity", "setting": "RAW-Dual [1]; agonist: Imiquimod (TLR7) […]", "value": 0.991}, {"measurement": "NF-kB SEAP reporter activity", "setting": "RAW-Dual [1]; agonist: MPLA (TLR4) […]", "value": 1.07}]}
{"molecule": "NC1CC1c1ccc(-c2cccc(O)c2)cc1", "note": "(stereo unspecified) (library stock concentration (final ~1000-fold dilution): 10 mM)", "values": [{"measurement": "NF-kB SEAP reporter activity", "setting": "RAW-Dual [2]; agonist: LPS (TLR4) 0.1 ug/mL", "value": 0.984}, {"measurement": "NF-kB SEAP reporter activity", "setting": "RAW-Dual [2]; [3]", "value": 0.763}, {"measurement": "NF-kB SEAP reporter activity", "setting": "RAW-Dual [2]; [4]", "value": 0.977}, {"measurement": "NF-kB SEAP reporter activity", "setting": "RAW-Dual [2]; [5]", "value": 1.1}]}
{"molecule": "NC1CC1c1ccc(-c2cccc(O)c2)cc1", "note": "(stereo unspecified)", "values": [{"measurement": "NF-kB SEAP reporter activity", "setting": "RAW-Dual [1]; agonist: Imiquimod (TLR7) […]", "value": 0.951}, {"measurement": "NF-kB SEAP reporter activity", "setting": "RAW-Dual [1]; agonist: MPLA (TLR4) […]", "value": 1.02}]}
{"molecule": "CC1OC(OC2C(CO)OC(OCC3OC(OC(=O)[C@]45CC[C@@H](C)[C@H](C)[C@H]4C4=CCC6[C@@]7(C)C[C@@H](O)[C@@H](O)[C@@](C)(CO)C7CC[C@@]6(C)[C@]4(C)CC5)C(O)C(O)C3O)C(O)C2O)C(O)C(O)C1O", "note": "(stereo partly specified)", "values": [{"measurement": "NF-kB SEAP reporter activity", "setting": "RAW-Dual [1]; agonist: Imiquimod (TLR7) […]", "value": 0.975}, {"measurement": "NF-kB SEAP reporter activity", "setting": "RAW-Dual [1]; agonist: MPLA (TLR4) […]", "value": 1.12}]}
{"molecule": "CC1OC(OC2C(CO)OC(OCC3OC(OC(=O)[C@]45CC[C@@H](C)[C@H](C)[C@H]4C4=CCC6[C@@]7(C)C[C@@H](O)[C@@H](O)[C@@](C)(CO)C7CC[C@@]6(C)[C@]4(C)CC5)C(O)C(O)C3O)C(O)C2O)C(O)C(O)C1O", "note": "(stereo partly specified) (library stock concentration (final ~1000-fold dilution): 10 mM)", "values": [{"measurement": "NF-kB SEAP reporter activity", "setting": "RAW-Dual [2]; agonist: LPS (TLR4) 0.1 ug/mL", "value": 1.08}, {"measurement": "NF-kB SEAP reporter activity", "setting": "RAW-Dual [2]; [3]", "value": 0.915}, {"measurement": "NF-kB SEAP reporter activity", "setting": "RAW-Dual [2]; [4]", "value": 1.06}, {"measurement": "NF-kB SEAP reporter activity", "setting": "RAW-Dual [2]; [5]", "value": 1.1}]}
{"molecule": "CS(=O)(=O)N1CCN(Cc2cc3nc(-c4cccc5[nH]ncc45)nc(N4CCOCC4)c3s2)CC1", "note": "(library stock concentration (final ~1000-fold dilution): 10 mM)", "values": [{"measurement": "NF-kB SEAP reporter activity", "setting": "RAW-Dual [2]; agonist: LPS (TLR4) 0.1 ug/mL", "value": 1.87}, {"measurement": "NF-kB SEAP reporter activity", "setting": "RAW-Dual [2]; [3]", "value": 0.247}, {"measurement": "NF-kB SEAP reporter activity", "setting": "RAW-Dual [2]; [4]", "value": 1.02}, {"measurement": "NF-kB SEAP reporter activity", "setting": "RAW-Dual [2]; [5]", "value": 0.72}]}
{"molecule": "CS(=O)(=O)N1CCN(Cc2cc3nc(-c4cccc5[nH]ncc45)nc(N4CCOCC4)c3s2)CC1", "values": [{"measurement": "NF-kB SEAP reporter activity", "setting": "RAW-Dual [1]; agonist: Imiquimod (TLR7) […]", "value": 1.77}, {"measurement": "NF-kB SEAP reporter activity", "setting": "RAW-Dual [1]; agonist: MPLA (TLR4) […]", "value": 1.75}]}
{"molecule": "COc1ccccc1N1CCN(CCN2C(=O)CC3(CCCC3)CC2=O)CC1.Cl.Cl", "values": [{"measurement": "NF-kB SEAP reporter activity", "setting": "RAW-Dual [1]; agonist: Imiquimod (TLR7) […]", "value": 1.09}, {"measurement": "NF-kB SEAP reporter activity", "setting": "RAW-Dual [1]; agonist: MPLA (TLR4) […]", "value": 1}]}
{"molecule": "COc1ccccc1N1CCN(CCN2C(=O)CC3(CCCC3)CC2=O)CC1.Cl.Cl", "note": "(library stock concentration (final ~1000-fold dilution): 10 mM)", "values": [{"measurement": "NF-kB SEAP reporter activity", "setting": "RAW-Dual [2]; agonist: LPS (TLR4) 0.1 ug/mL", "value": 1.35}, {"measurement": "NF-kB SEAP reporter activity", "setting": "RAW-Dual [2]; [3]", "value": 1.05}, {"measurement": "NF-kB SEAP reporter activity", "setting": "RAW-Dual [2]; [4]", "value": 0.87}, {"measurement": "NF-kB SEAP reporter activity", "setting": "RAW-Dual [2]; [5]", "value": 1.26}]}
